Laboratory results taken from article PMC11032447, “A hydrophobic groove in secretagogin allows for alternate interactions with SNAP-25 and syntaxin-4 in endocrine tissues” (Proceedings of the National Academy of Sciences of the …, 2024).
Blank lines part the entries; values can stand above or below the binder they belong to.

Target: T1, mouse secretagogin (mouse, UniProt Q91WD9 1-276)
T1 construct: mouse secretagogin, the three-domain protein (domains A, B, C); construct in Dataset S1; also called mSCGN; SCGN; source: recombinant, produced and purified; E. coli BL21(DE3) named for the pull-down constructs
T1 sequence (looked up): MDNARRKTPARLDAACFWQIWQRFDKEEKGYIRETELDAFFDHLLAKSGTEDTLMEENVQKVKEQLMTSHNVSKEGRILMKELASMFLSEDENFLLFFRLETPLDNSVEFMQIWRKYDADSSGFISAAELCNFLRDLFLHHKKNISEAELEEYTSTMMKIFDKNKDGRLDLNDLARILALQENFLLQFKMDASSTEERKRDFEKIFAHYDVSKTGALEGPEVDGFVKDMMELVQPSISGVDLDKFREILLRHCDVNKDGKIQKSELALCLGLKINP
Experiment: ITC; in the presence of Ca2+
Conditions: both partners purified

Kd: ~8 nM
B1: C-terminal SNARE domain of mouse SNAP-25 (domain or fragment)
chain: not shown
notes: mouse SNAP-25, C-terminal SNARE domain (helix), identical in SNAP25-1 and SNAP25-2; limits in Dataset S1; The pull-down fragments are said to derive from isoform-2; also called SNAP-25c; SNAP-25C; source: recombinant; E. coli BL21(DE3) named for the pull-down constructs

Kd: ~32 nM
B2: mouse SNAP-25 isoform 2 (natural protein)
chain: not shown
notes: mouse SNAP-25-2; construct in Dataset S1; Construct limits are in Dataset S1; also called SNAP25-2; SNAP-25-2; source: recombinant, produced and purified
